In all, about 310,000 compounds went through this assay and about 14,000 (4.5%) showed an effect of 50% or more. Effects have a minus sign here. This is one part of the list.
The compounds below were run against human ether-à-go-go-related gene (hERG) potassium channel (human, UniProt Q12809) (assay: primary screen, population patch clamp on CHO cells stably expressing hERG).
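Further: peak tail current of the secondary pulse compared with the same well before compound.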

Sequence of human ether-à-go-go-related gene (hERG) potassium channel (Q12809 whole entry, looked up): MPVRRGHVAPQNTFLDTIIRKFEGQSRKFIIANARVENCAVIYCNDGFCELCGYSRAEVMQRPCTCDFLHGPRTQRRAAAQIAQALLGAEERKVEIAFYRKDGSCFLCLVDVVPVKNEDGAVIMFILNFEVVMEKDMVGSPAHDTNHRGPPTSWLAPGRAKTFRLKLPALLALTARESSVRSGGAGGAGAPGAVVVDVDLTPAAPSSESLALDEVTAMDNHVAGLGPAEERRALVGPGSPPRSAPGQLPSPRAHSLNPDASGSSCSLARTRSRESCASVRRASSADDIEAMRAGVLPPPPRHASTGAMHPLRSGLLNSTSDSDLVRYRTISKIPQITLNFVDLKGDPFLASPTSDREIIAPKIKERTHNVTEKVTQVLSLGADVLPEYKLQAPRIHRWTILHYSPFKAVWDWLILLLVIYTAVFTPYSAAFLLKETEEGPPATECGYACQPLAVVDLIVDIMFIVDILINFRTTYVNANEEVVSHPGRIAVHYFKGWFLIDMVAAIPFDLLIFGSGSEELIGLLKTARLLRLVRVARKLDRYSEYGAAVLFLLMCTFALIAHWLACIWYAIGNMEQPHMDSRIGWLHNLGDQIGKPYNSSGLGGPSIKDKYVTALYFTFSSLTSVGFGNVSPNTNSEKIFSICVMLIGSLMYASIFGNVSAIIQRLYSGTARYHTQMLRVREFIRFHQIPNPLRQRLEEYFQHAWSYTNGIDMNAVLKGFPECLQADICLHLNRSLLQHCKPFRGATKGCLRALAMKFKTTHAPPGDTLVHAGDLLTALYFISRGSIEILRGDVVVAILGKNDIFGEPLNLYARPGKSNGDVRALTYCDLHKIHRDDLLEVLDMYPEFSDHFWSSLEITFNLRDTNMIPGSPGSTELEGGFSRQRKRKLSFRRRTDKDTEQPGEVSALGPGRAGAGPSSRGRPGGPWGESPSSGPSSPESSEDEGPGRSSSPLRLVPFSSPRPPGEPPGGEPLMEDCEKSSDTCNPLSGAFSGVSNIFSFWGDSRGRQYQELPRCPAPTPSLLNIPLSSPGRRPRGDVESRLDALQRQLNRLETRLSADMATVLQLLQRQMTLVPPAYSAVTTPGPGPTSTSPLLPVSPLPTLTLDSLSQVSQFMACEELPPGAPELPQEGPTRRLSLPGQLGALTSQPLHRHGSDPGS

Row | Compound | hERG current change (%, negative = inhibition) at 10uM [%]
1 | O=C(c1ccc(N2CCCCC2)c([N+](=O)[O-])c1)N1CCC2(CC1)OCCO2 | -40
2 | CCc1ccc(NC(=O)C(=O)NNC(=O)c2ccc(OC)cc2)cc1 | 5.66
3 | CCN(CC)S(=O)(=O)c1cc(NC(=O)CNc2cccc(S(=O)(=O)N3CCOCC3)c2)ccc1C | 7.17
4 | Cc1nc2cc(Nc3nnc(-c4ccccc4)c4ccccc34)ccc2n1C | -67.2
5 | CCOC(=O)c1sc(NC(=O)c2ccc(Br)o2)cc1C | -6.02
6 | CCOc1ccc(NC(=O)CN2CCc3cc4c(cc3C2)OCCCO4)cc1OCC | -4.56
7 | Cc1onc(C(=O)NC2CCCCC2)c1[N+](=O)[O-] | -23.2
8 | COc1ccccc1N=Nc1c(C)[nH][nH]c1=O | -3.66
9 | S=C(NCc1cccnc1)Nc1ccc(Cl)cc1 | -10.8
10 | Cn1cc(SCC(=O)NC2CCCC2)c2ccccc21 | 1.6
11 | CCSc1ccccc1C(=O)N1CCN(c2ccc([N+](=O)[O-])cc2)CC1 | -79.4
12 | O=C(c1ccccc1-n1cccn1)N1CCc2c([nH]c3ccccc23)C1c1ccccn1 (centres unmarked) | -5.95
13 | O=C(COc1ccc(Br)cc1F)NC1CCN(Cc2ccccc2)CC1 | -74
14 | O=c1[nH]c2ccccc2nc1/C=C/c1ccc(Cl)cc1 | 18.6
15 | O=C(c1cccs1)n1nc(-c2ccc(Cl)cc2)nc1NCc1ccco1 | 0.741
16 | Cc1ccc(-c2c(C(=O)Nc3ccccc3C)c(C)[nH]c(=S)c2C#N)o1 | 16.1
17 | CCCCNC(=O)Cc1c(OC)ccc2cc(Br)ccc12 | 13.4
18 | Cc1ccc(-c2nn3c(C)nnc3s2)cc1NCc1c(F)cccc1Cl | 2.39
19 | COCC1CCN(C(=O)C2CCC(=O)N(CCc3ccc(Cl)cc3)C2)CC1 (centres unmarked) | -19.6

Row | Compound | hERG current change (%, negative = inhibition) at 10uM [%]
20 | O=C(O)CCNS(=O)(=O)c1ccccc1Br | 8.88
21 | COc1ccc(NC(=O)Cc2ccsc2)cc1S(=O)(=O)N1CCOCC1 | -1.04
22 | O=C(COC(=O)c1cccc([N+](=O)[O-])c1)NCc1ccc2c(c1)OCO2 | 9.38
23 | COC(=O)CCC(=O)Nc1cc(OC)c(OC)cc1Cc1nccc2cc(OC)c(OC)cc12 | 12
24 | O=C(Cn1cnc2ccccc2c1=O)c1cccs1 | 11.7
25 | O=C(CSc1nc2ccccc2c(=O)n1-c1ccc(F)cc1F)Nc1ccc2c(c1)CCC2 | -5.3
26 | CN(C1CCCCC1)S(=O)(=O)c1ccc(NC(=O)c2ccco2)cc1 | -42.9
27 | CCN(Cc1ccccc1)C(=O)c1cc(-c2ccc(OC)c(OC)c2)nc2ccccc12 | -7.33
28 | O=C1OC(c2ccccc2)/C(=C(/O)c2ccccc2)C1=O (centres unmarked) | 13.1
29 | Cc1cc(C)cc(N(CCC#N)C(=O)CSc2nc3nc(C)cc(C)n3n2)c1 | -15.9
30 | C=CCn1c(C)cc(-c2csc(NCC)n2)c1C | -0.487
31 | O=C(CSCc1ccccn1)Nc1ccccc1 | 1.85
32 | O=C(NC12CC3CC(CC(C3)C1)C2)c1ccc(N2CCNCC2)c([N+](=O)[O-])c1 | -25.2
33 | CCNc1nc(NCC)nc(Oc2ccc(OCC)nn2)n1 | 13.9
34 | O=C(COc1ccc(F)cc1Cl)N(Cc1nnc(-c2ccccc2Cl)o1)C1CC1 | -34.7
35 | COc1ccc(-c2nc(C)c(C(C)=O)n2O)cc1 | 19
36 | O=c1c2c3n(c(=S)nc2[nH]n1-c1ccccc1)CCCCC3 | 17.2
37 | Cc1cc2c(s1)Nc1ccccc1N=C2N1CCN(C)CC1 | -13.2
38 | Cn1c(=O)c(=O)n(C)c2cc(S(=O)(=O)NCc3ccc(Cl)cc3)ccc21 | -26.3

Row | Compound | hERG current change (%, negative = inhibition) at 10uM [%]
39 | Cc1ccc(CSc2ncnc3c2cnn3-c2ccc(C)cc2)cc1 | 30.7
40 | O=C(CCc1ccccc1)N1CCN(S(=O)(=O)c2cccs2)CC1 | -21.9
41 | Cc1ccc(SCc2cc(=O)[nH]c(N3CCN(Cc4ccc5c(c4)OCO5)CC3)n2)cc1 | 9.08
42 | N#C/C(=C\c1ccc(O)cc1)C(=O)N1CCCC1 | 19.1
43 | O=C(CCc1nc2ccccc2c(=O)[nH]1)OCC(=O)N1CCc2ccccc21 | 17.1
44 | COc1cc(-c2noc(CCCC(=O)NCc3ccco3)n2)cc(OC)c1OC | -12.1
45 | CC(=O)Nc1ccc(S(=O)(=O)NCC(=O)OC(C)c2ccccc2Cl)cc1 (centres unmarked) | -4.38
46 | COc1cccc(C2=NOC(C(=O)Nc3cccnc3)C2)c1 (centres unmarked) | 10.3
47 | CC(C)C(NC(=O)c1ccccc1)C(=O)NCC(c1ccccc1)N(C)C (centres unmarked) | -0.00722
48 | COc1ccc(NC(=O)Nc2nnc(Cc3ccccc3)s2)cc1 | 12.1
49 | Cc1ccc(C)c(NC(=O)CN(C)C(=O)c2cccc(S(=O)(=O)N3CCN(Cc4ccccc4)CC3)c2)c1 | 9.47
50 | O=C(c1cc(COc2ccc(F)cc2Cl)on1)N1C[C@H]2CC[C@H]1C2 | -7.99
51 | O=C(Oc1ccc2c(c1)OCO2)c1cccs1 | 4.6
52 | O=C(CN(Cc1ccc(F)cc1)C(=O)CCC(=O)Nc1nccs1)NCC1CCCO1 (centres unmarked) | 12.4
53 | O=C1CC(C(=O)O)C2(CCCC2)O1 (centres unmarked) | -2.45
54 | COc1cccc(NC(=O)COC(=O)c2ccccc2C(=O)N(C)c2ccccc2)c1 | -9.28
55 | CCCCN(CC(=O)Nc1c(C)cccc1CC)C(=O)SCC | 1.07
56 | CCn1cc(/C=C/C(=O)Nc2ccn(Cc3c(F)c(F)c(F)c(F)c3F)n2)cn1 | -5.77

Reference: article PMC4336329 (PLoS ONE, 2015)
